Test results published in PubChem BioAssay AID463173 (ICCB-Longwood Screening Facility, Harvard Medical School, 2010).
Screen size: about 52,000 compounds; about 1,700 (3.3%) were called active. Cut-off read from the data, not from the text of the source: active = survival mostly below about 52% (no sharp cut-off); inactive = mostly above about 56%. The list shows a part of the results.

These molecules were tested on Wild type (assay: growth inhibition of S. aureus wild type versus tarO mutant, primary screen, teichoic acid synthesis inhibitors, RN4220, OD600 (AID 463173)). Conditions: S. aureus RN4220 wild type/DeltatarO growth, OD600, 18 h, hits give low values, screened at 18.75 µg/mL (by protocol).

| Compound | survival |
| --- | --- |
| COc1ccc(NC(=O)CSc2nnc(-c3nonc3NC(C)=O)n2C)cc1Cl | inactive: 95% |
| CCN(CC)CCCNC(=O)C(C)n1nc(C)n2c(cc3occc32)c1=O (stereo unspecified) | inactive: 83% |
| Cc1c(Cl)cccc1NC(=O)CCn1cnnn1 | inactive: 68% |
| COc1ccc(Cl)cc1NC(=O)COC(=O)CC(C)(C)CC1=NS(=O)(=O)c2ccccc2N1 | inactive: 81% |
| COC(=O)c1cc(C)nc2c1c(=O)nc(SCc1cccc(C(F)(F)F)c1)n2C1CC1 | inactive: 91% |
| COCCCN1C(=O)c2[nH]nc(-c3ccccc3O)c2C1c1ccc(OC)cc1 (stereo unspecified) | inactive: 85% |
| CC(C)c1ccc(NC(=O)c2cc(S(=O)(=O)NC3CCCCC3)ccc2F)cc1 | inactive: 81% |
| O=C(C1CCC(CNS(=O)(=O)c2cccs2)CC1)N1CCN(c2ccc(Cl)cc2)CC1 (stereo unspecified) | inactive: 47% |
| COC(=O)c1ccccc1NC(=O)CN(c1ccc(Cl)cc1)S(=O)(=O)c1ccc(OC)cc1 | inactive: 84% |
| COc1ccc(CCNC(=O)Cn2c(=O)nc(-c3ccccc3F)c3cc(Cl)ccc32)cc1OC | inactive: 90% |
| Cc1ccc2[nH]c(CSc3nnc(C)s3)cc(=O)c2c1 | inactive: 71% |
| Cc1cc(N)c(O)cc1C | inactive: 94% |
| CCOc1ccccc1NC(=O)C1CCN(S(=O)(=O)c2cccc3nonc23)CC1 | inactive: 76% |
| NC(=O)C1CCN(C(=O)C2CCN(S(=O)(=O)c3ccc(-n4cnnn4)cc3)CC2)CC1 | inactive: 112% |
| COc1ccc(S(=O)(=O)Nc2ccc(S(=O)(=O)N3CCCC3)cc2)cc1C | inactive: 104% |
| O=C(Nc1cc(-c2ccc(F)c(F)c2)no1)c1ccccc1F | inactive: 92% |
| Cc1cccc(N2CCN(C(=O)C3CCCN(C(=O)c4cc5sccc5n4C)C3)CC2)c1C (stereo unspecified) | inactive: 68% |
| COc1ccc(N2CCN(c3ncnc4onc(C)c34)CC2)cc1 | inactive: 76% |
| CCOc1ccc(CCNC(=O)Cn2ccc3cc(S(=O)(=O)N4CCCCCC4)ccc32)cc1 | inactive: 134% |
| CCC1CN(C(=O)C2CCN(S(=O)(=O)c3c(C)noc3/C=C/c3ccc(C)cc3)CC2)c2cc(C)ccc2O1 (stereo unspecified) | inactive: 74% |
| CC1=C(C(=O)Nc2ccc(F)cc2)C(c2ccc(N(C)C)cc2)NC(=O)N1 (stereo unspecified) | inactive: 129% |
| COCCNC(=O)CCn1c(=O)[nH]c2cc(OC)c(OC)cc2c1=O | inactive: 75% |
| N=C1SCC(=O)N1c1nc(-c2ccccc2)cs1 | inactive: 114% |

| Compound | survival |
| --- | --- |
| COc1ccc(NC(=O)C(=O)c2cc(C)n(-c3ccc(C)cc3)c2C)cc1Cl | inactive: 86% |
| O=C(Nc1ccc(C(F)(F)F)cc1)C1(c2cccs2)CCOCC1 | inactive: 82% |
| CCCOC(=O)c1cccc(Nc2nc(C(=O)OCC)nc3ccccc23)c1 | inactive: 44% |
| CCC1CN(C(=O)N2CCC(C(=O)NCc3ccccc3F)CC2)c2ccccc2O1 (stereo unspecified) | inactive: 98% |
| CC1CCCN(c2ncnc3c2nnn3C)C1 (stereo unspecified) | inactive: 59% |
| CCOc1ccc(NC(=O)c2cc(S(=O)(=O)N3CCC(C)CC3)cn2C)cc1 | inactive: 118% |
| COc1ccc(CNC(=O)Cc2ccc(NC(=O)N3CCCCc4ccccc43)cc2)cc1 | inactive: 93% |
| Cc1ccc(NC(=O)c2c(C)oc3ncnc(N4CCCCC4)c23)c(C)c1 | inactive: 120% |
| CC(Oc1ccccc1F)C(=O)NCC1(N2CCOCC2)CCCCC1 (stereo unspecified) | inactive: 86% |
| O=c1nc2ccccn2c2c1c(=O)[nH]c1ccccc12 | inactive: 98% |
| CC1CCN(CN2C(=O)CCC2=O)CC1 | inactive: 102% |
| CC1=C2C(N)=C(C(=O)Nc3ccccc3)SC2NC(C(F)(F)F)=C1 (stereo unspecified) | inactive: 114% |
| CCOc1ccccc1C(=O)N=C1NC(=O)CS1 | inactive: 97% |
| Cc1cc(C)cc(NC(=O)c2cc(S(=O)(=O)N3CCCCC3)c[nH]2)c1 | inactive: 88% |
| CCc1ccc(NC(=O)c2sc3nc(C)cc(C)c3c2NC(=O)c2ccccc2)cc1 | inactive: 68% |
| COc1ccc(CNC(=O)C2CCN(c3nnc(C)c4c(C)n(-c5ccc(C)cc5)nc34)CC2)cc1 | inactive: 119% |
| Cc1cc(=O)n2[nH]c(CC(=O)O)nc2n1 | inactive: 112% |
| Cc1ccccc1NC(=O)C1CCN(S(=O)(=O)c2cccc3nonc23)CC1 | inactive: 121% |
| COc1cccc(CNC(=O)Nc2ccc3c(c2)N(C)C(=O)c2ccccc2S3)c1 | inactive: 78% |
| Cc1ccc(-c2nn3c(C)nnc3c3ccccc23)cc1S(=O)(=O)NC(C)(C)CO | inactive: 89% |
| COc1ccc(OC)c(-c2cc(C(=O)NCc3ccc(Cl)cc3)no2)c1 | inactive: 85% |
| CCOc1ccc(N(C)S(=O)(=O)c2cc(-c3cnc(C)o3)ccc2OC)cc1 | inactive: 54% |
| O=C(Nc1nnc2n1CCS2)c1cc(C(F)(F)F)cc(C(F)(F)F)c1 | inactive: 80% |

| Compound | survival |
| --- | --- |
| Cc1ccc(C)c(NC(=O)Cn2cc(S(=O)(=O)c3ccc(F)cc3)c(=O)c3cc(F)ccc32)c1 | inactive: 89% |
| COc1ccc(/C=C/C(=O)Nc2cccc(F)c2)cc1 | inactive: 62% |
| CN(C)S(=O)(=O)c1ccc2c(c1)N(CC(=O)N1CCC(C(N)=O)CC1)CCS2 | inactive: 75% |
| Cn1c(=O)c2c(-c3ccccc3)n3c(c2n(C)c1=O)C(c1cccc([N+](=O)[O-])c1)Nc1ccccc1-3 (stereo unspecified) | inactive: 31% |
| Cc1ccc(NC(=O)C2CCCN(c3nc4ccccc4s3)C2)c(C)c1 (stereo unspecified) | inactive: 86% |
| CCc1ccc2[nH]c(=O)c(C(c3nnnn3C(C)(C)C)N3CCCCC3)cc2c1 (stereo unspecified) | inactive: 93% |
| COc1ccc(C(=O)N2CCN(CCc3ccccn3)CC2)cc1 | inactive: 113% |
| Cc1cccc(C)c1NC(=O)Cn1c(=O)n(CCC(=O)NCc2ccc3c(c2)OCO3)c(=O)c2sccc21 | inactive: 89% |
| COc1ccc(-c2cc(C(F)(F)F)n3nc(C(=O)Nc4ccc(Cl)cc4C(F)(F)F)cc3n2)cc1OC | inactive: 68% |
| COc1ccccc1N1CCN(C(=O)c2ccco2)CC1 | inactive: 108% |
| O=C(Nc1c[nH]c(=O)[nH]c1=O)c1ccco1 | inactive: 106% |
| Nc1ccc(-c2nc3c(Cl)cccc3[nH]2)cc1 | inactive: 125% |
| Cc1oc(-c2ccccc2)nc1Cn1c(=O)cc(-c2ccccc2)c2c(C)nn(C)c21 | inactive: 76% |
| CCN(C(=O)Cn1cnc2c1c(=O)n(C)c(=O)n2C)c1ccccc1C | inactive: 73% |
| Cc1ccc(NC(=O)c2cnc(SCC(=O)N3CCCc4ccccc43)n(C)c2=O)cc1C | inactive: 77% |
| CC(C)CN(CC(C)C)c1nnc(NC(=O)Nc2cccc(C(F)(F)F)c2)s1 | inactive: 97% |
| CCOc1ccc(CNC(=O)c2ccc(Sc3ccc(C)cc3)c(N)c2)cc1OC | inactive: 119% |
| COc1ccc(-c2cc(C(=O)Nc3c(C(=O)c4ccc(C)c(F)c4)oc4ccccc34)no2)cc1 | inactive: 86% |
| Cc1ccc2nc(Cl)c3cc(C(=O)N4CCCC(C)C4)sc3c2c1 (stereo unspecified) | active: -2% |
| CCn1c(=O)c2cc(C(=O)NCCc3ccc(OC)c(OC)c3)sc2c2ccccc21 | inactive: 82% |
| COc1ccc(OCC(=O)Nc2ccc3c(c2)N(C)C(=O)c2ccccc2S3)cc1 | inactive: 75% |
| CN(C)c1ccc(/C=N/NC(=O)c2ccccc2)cc1 | inactive: 99% |
| O=C(O)CN1C(=O)/C(=c2\sc3nc4ccccc4n3c2=O)c2ccccc21 | inactive: 104% |

| Compound | survival |
| --- | --- |
| COc1ccc(C(C)=O)cc1CSc1nc(NCc2ccc(Cl)cc2)c2ccccc2n1 | active: 0% |
| COC(=O)Cn1c(SCCOc2ccccc2Cl)nc2ccccc21 | inactive: 81% |
| COC(=O)CSc1nnc(-c2cccc(O)c2)o1 | inactive: 105% |
| O=C(CCS(=O)(=O)c1nc(-c2ccc3c(c2)OCO3)cc(C(F)(F)F)n1)Nc1ccccc1C(F)(F)F | inactive: 96% |
| CCc1ccccc1NC(=O)c1cc(S(=O)(=O)N2CCC(C)CC2)cn1C | inactive: 22% |
| CN(C)S(=O)(=O)c1ccc2c(c1)oc(=O)n2C | inactive: 121% |
| CC(C)OC(=O)c1ccc(N)cc1 | inactive: 98% |
| CCOC(=O)c1cc(-c2ccc(C)cc2)n(CC(=O)Nc2cc(C)ccc2C)c1C | inactive: 99% |
| COc1ccc(-c2cc(C(F)(F)F)n3nc(C(=O)Nc4cccc(Cl)c4Cl)cc3n2)cc1OC | inactive: 128% |
| CC1=C(C(=O)Nc2ccc(C)cc2C)C(c2cc(Br)ccc2F)n2ncc(C(=O)Nc3ccc(C)cc3)c2N1 (stereo unspecified) | inactive: 72% |
| COc1ccc(OC)c(CNC(=O)c2cc3ccc4cccnc4c3[nH]2)c1 | inactive: 118% |
| Cc1nn2c(=O)cc(COC(=O)c3ccc(NC(=O)COc4ccc(Cl)cc4)cc3)nc2s1 | inactive: 153% |
| Cc1ccccc1Nc1c(-c2c[nH]c3ccccc23)nc2ccccn12 | inactive: 83% |
| CCn1nnc2cc(C(=O)Nc3ccc(C)cc3Br)ccc21 | inactive: 133% |
| O=c1c(Cl)c(N2CCCCC2)cnn1C12CC3CC(CC(C3)C1)C2 | inactive: 114% |
| CC1CCN(S(=O)(=O)c2ccc3nc(NCc4ccc(F)cc4)ccc3c2)CC1 | inactive: 71% |
| O=c1c2oc3ccccc3c2n(Cc2ccccc2)c(=O)n1Cc1ccco1 | inactive: 120% |
| COc1ccc(C)cc1NC(=O)C(=O)NCCc1csc2nc(-c3ccccc3F)nn12 | inactive: 71% |
| CCOc1ccc(CCNc2ncnc3onc(-c4ccc(Cl)cc4)c23)cc1 | inactive: 88% |
| O=C(Cn1nnc2sc(-c3ccccc3)cc2c1=O)Nc1cccc(C(F)(F)F)c1 | inactive: 78% |
| CC(C)(C)OC(=O)N1CCC(c2nnc(SCc3ccccc3F)o2)CC1 | inactive: 73% |
| COc1ccc(-c2csc(N(CC(C)C)C(=O)c3cccs3)n2)cc1 | inactive: 110% |
